Assay results from ChEMBL document CHEMBL4888484, “Replenishing the malaria drug discovery pipeline: Screening and hit evaluation of the MMV Hit Generation Library 1 (HGL1) against asexual blood stage Plasmodium falciparum ,using a nano luciferase reporter read-out” (2022).
In all, about 150,000 compounds went through this assay and about 540 (0.36%) showed an effect of 50% or more. The list shows a part of the results.

What follows are compounds tested on Plasmodium falciparum (assay: Primary screen in NF54 nanoGlo assay, in single point, at 2uM, 72h; a lower Z score goes with more inhibition). Details: timepoint 72 hour.
Type: functional, Erythrocyte

SMILES | % Inhibition [%] | Z score
Cc1ccc2nc(NC(=O)CS(=O)(=O)Cc3ccccc3)sc2c1 | -9 | 1.8
O=C(NC[C@H]1CCOC1)c1ccc(Br)o1 | -13 | 2.1
COc1cccc(CN2CCc3nc(N4CCCC4)ncc3C2)c1 | -4 | 0.53
C[C@@H](COc1ccccc1F)NC(=O)NC1CCC(O)CC1 (stereo partly drawn) | 2 | -0.26
COCCOCCC(=O)NC1C(C)CCCC1C (stereo not drawn) | -11 | 1.45
Cc1cc(CN2CCC3(CC2)C[C@@H]3c2nnc3n2CCCCC3)on1 | -8 | 1.43
COc1ccccc1COC(=O)Nc1c(C)nn(C)c1Cl | 2 | -0.32
O=C(c1ccccc1S(=O)(=O)N1CCc2cc(F)ccc21)N1CCOCC1 | -9 | 1.07
Cc1cc(NS(=O)(=O)c2cccc(C(=O)NCc3ccc(F)c(C)c3)c2)no1 | 0 | -0.04
C[C@H]1CCC(=O)N1c1ccc(NC(=O)C2CCOCC2)cc1 | -4 | 0.84
COc1ccc(-c2cc3c(=O)n(CCNC(=O)c4ccc(OC)nc4)ccn3n2)cc1 | 3 | -0.43
COC[C@@H]1CN(C(=O)c2ccc(F)cc2Cl)C[C@H]1c1ccccn1 | -11 | 1.78
CCn1ccnc1CN(C)c1nc(-c2cccnc2)nc2c1c(C)nn2C | -6 | 1.15
CCCCNC(=O)N1CC(C(=O)NCC2CC2)CCC1c1ccc(F)c(C)c1 (stereo not drawn) | -23 | 2.19
CN(C[C@H](O)c1ccccc1)C(=O)Cn1nnnc1CN1CCCCCC1 | -17 | 2.85
CC(=O)NCCCN(C)C(=O)C(C)(C)c1ccc(C)cc1 | 2 | -0.34
COCCN1C[C@@H](Cc2ccc(C(=O)N3CCCCC3)cn2)CC1=O | -1 | 0.2
O=C(Cc1c(F)cccc1F)Nc1cncnc1-n1cccn1 | -12 | 1.51
CCOC(=O)c1nnsc1Nc1ccc(C)c(C)c1 | -9 | 1.17
O=c1[nH]nc(CCn2ccnc2-c2ccccc2-c2ccco2)[nH]1 | -14 | 1.58
CCn1cc(CN2CCC3(CC[C@@H]3OCc3nc(C)no3)CC2)c(C)n1 | -6 | 0.84
Cc1ccc(-c2nc3nc(C)c(CC(=O)Nc4cccc(Cl)c4C)c(C)n3n2)cc1 | -8 | 1.13
CO[C@H]1COCC[C@@H]1NC(=O)CCc1cn[nH]c1 | -5 | 0.84
CC(C)c1ccc(NS(=O)(=O)c2ccc(-c3cnc(C4CC4)o3)cc2)cc1 | -11 | 2.11
COc1ccc2c(c1)Oc1ccccc1N=C2N1CCN(S(=O)(=O)c2ccc(Cl)cc2)CC1 | 3 | -0.33
COCC(=O)N1CCN(C(=O)c2ccccc2Cl)[C@H]2CS(=O)(=O)C[C@H]21 | -9 | 1.69
COc1cc(OC)c(CN2CCN(C)[C@@]3(CCNC(=O)CC3)C2)cc1Cl | 1 | -0.17

SMILES | % Inhibition [%] | Z score
O=C(N[C@@H](c1ccsc1)c1cccs1)c1ccc2nsnc2c1 | -8 | 1.44
Cc1ccc(C(=O)N[C@@H](Cc2c[nH]cn2)C(=O)O)n1C(F)F | 10 | -1.74
COCC#CCN(c1ccc(C(C)=O)cc1)S(C)(=O)=O | 0 | -0.06
CC(C)[C@H](CNCc1cn(C(C)(C)C)nn1)c1cccnc1 | 5 | -0.75
CCc1ccccc1/N=C(\NCc1c(C)nn(CC)c1C)NC(=O)c1ccccc1 | -9 | 1.53
Cc1cc(C)cc(NC(=O)C(C)(C)C)c1 | -14 | 2.59
CCOc1cc(CNc2cncc(-n3nc(C)cc3C)n2)ccn1 | -1 | 0.15
CN(CC(=O)N[C@H]1CCS(=O)(=O)C1)C1CCCCCCC1 | -10 | 0.89
CCC(CC)(CO)CN(C)C(=O)c1cccc2c1CCC2=O | 0 | 0.01
Cn1cc(CNCc2c(C(=O)N3CCCCCCC3)nc3ccc(Cl)cn23)cn1 | -14 | 2.38
CCOc1ccc(CN2CCN(C(=O)c3cccs3)CC2)cn1 | 0 | -0.05
Cc1ccc(CN[C@H]2CC(C)(C)Cc3nc(N4CCOCC4)ncc32)s1 | -2 | 0.27
Cc1nnsc1C(=O)NCCn1nc(-c2ccccn2)n(C)c1=O | 5 | -0.7
CC(C)Oc1nc(-c2cccs2)n(-c2cccc(NC(=O)c3ccc(F)cc3)c2)n1 | -15 | 1.58
COc1ccc(-c2cccc(C(=O)NCCc3n[nH]c(=O)n3C)c2)cc1C | -7 | 0.86
Cn1c(-c2nccn2CCc2c[nH]c(=O)[nH]c2=O)nc2ccccc21 | -7 | 1.03
CCN1CCC(N2C[C@H](COc3ccc(F)cc3)OCC2=O)CC1 | -10 | 1.25
Cc1ccccc1C(=O)N(Cc1cccc(F)c1)c1ccc(CC(=O)N(C)Cc2ccccc2)cc1 | -9 | 1.19
CCO[C@H]1COC[C@@H]1NC(=O)c1cnc(N)s1 | -1 | 0.17
CCc1c(C)nc(-c2cccc(C)c2)nc1N1CCN(C(=O)Nc2ccccc2OC)CC1 | -2 | 0.27
CC(C)c1nc(N2CCOc3c(O)cc(-c4ccc(Cl)cn4)cc3C2)no1 | -12 | 1.21
O=C(c1ccco1)N1CCOc2ccc(CN3CCOCC3)cc2C1 | -6 | 1.13
COCC(C)(C)CNC(=O)[C@]1(C)CCCCO1 | -6 | 0.97
OC(c1ccccc1)(c1ccccc1)C1CCN(c2ccc3nnc(-c4ccc(F)cc4)n3n2)CC1 | -11 | 1.69
Cc1nc(C(=O)N2CCN(Cc3ccc(Cl)cc3C)CC2)n(C)n1 | -4 | 0.76
CN(C)c1nc2c(c(=O)[nH]c(=O)n2C)n1C[C@H](O)c1ccccc1 | 5 | -0.69
COc1ccccc1CNc1ccc(C(=O)N2CCN(C)CC2)cc1S(=O)(=O)Nc1cccc(C(F)(F)F)c1 | -8 | 1.51
